Results from article PMC4336329 (PLoS ONE, 2015).
Among all 310,000 compounds or so, about 2,200 (0.71%) showed an effect of 50% or more. Effects have a minus sign here. The list shows a part of the results.

Target: human ether-à-go-go-related gene (hERG) potassium channel (human, UniProt Q12809)
Assay: primary screen, population patch clamp on CHO cells stably expressing hERG

Chain of human ether-à-go-go-related gene (hERG) potassium channel (Q12809 whole entry, looked up): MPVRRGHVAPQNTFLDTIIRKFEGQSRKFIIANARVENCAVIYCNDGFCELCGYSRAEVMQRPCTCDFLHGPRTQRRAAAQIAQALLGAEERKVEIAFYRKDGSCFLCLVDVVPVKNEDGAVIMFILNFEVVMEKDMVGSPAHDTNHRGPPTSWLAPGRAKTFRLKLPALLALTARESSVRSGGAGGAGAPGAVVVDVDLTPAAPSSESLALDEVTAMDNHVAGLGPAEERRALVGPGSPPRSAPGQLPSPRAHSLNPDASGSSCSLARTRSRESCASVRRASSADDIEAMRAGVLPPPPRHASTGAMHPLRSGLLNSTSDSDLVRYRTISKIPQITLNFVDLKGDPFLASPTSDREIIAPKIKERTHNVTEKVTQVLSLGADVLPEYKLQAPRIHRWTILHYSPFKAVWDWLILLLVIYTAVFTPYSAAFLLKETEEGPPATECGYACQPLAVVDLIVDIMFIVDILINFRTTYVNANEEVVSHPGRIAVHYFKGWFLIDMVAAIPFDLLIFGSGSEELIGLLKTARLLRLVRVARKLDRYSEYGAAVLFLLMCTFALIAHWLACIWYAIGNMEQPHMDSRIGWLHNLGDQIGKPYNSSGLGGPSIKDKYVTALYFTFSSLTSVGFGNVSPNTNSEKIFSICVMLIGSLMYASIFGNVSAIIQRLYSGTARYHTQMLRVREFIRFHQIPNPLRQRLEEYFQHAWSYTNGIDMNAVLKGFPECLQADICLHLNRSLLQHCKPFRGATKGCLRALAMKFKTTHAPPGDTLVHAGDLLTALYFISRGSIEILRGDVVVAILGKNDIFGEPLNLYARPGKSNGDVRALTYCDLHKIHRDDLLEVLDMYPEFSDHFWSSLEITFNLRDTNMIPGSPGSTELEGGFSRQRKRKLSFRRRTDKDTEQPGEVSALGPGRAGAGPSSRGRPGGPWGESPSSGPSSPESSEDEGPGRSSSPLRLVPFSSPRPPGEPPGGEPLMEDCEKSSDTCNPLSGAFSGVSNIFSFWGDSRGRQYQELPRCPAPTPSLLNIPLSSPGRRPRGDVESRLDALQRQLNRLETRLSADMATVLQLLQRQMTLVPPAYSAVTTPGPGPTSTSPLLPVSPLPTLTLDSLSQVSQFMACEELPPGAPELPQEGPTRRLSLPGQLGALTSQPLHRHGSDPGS

Structure (SMILES) | hERG current change (%, negative = inhibition) at 1uM
O=C(/C=C/c1cn(-c2ccccc2)nc1-c1ccc2c(c1)OCCO2)NCCO | -3.76%
Oc1cccc2ccc(/C=C/c3ccccc3Cl)nc12 | 6.57%
CNC(=S)NNC(=O)c1noc(C)c1C(=O)N1CCN(C(c2ccccc2)c2ccccc2)CC1 | 22.9%
CCOc1ccc2oc(C(=O)NNC(=O)c3csc(N4CCOCC4)n3)c(C)c2c1 | 1.7%
Cc1cc(N2C(=O)C(O)=C(C(=O)c3cccs3)C2c2cccc(Br)c2)no1 (stereo not drawn) | 15%
COC(=O)C1=C(c2cccc(OCc3ccccc3)c2)C[C@@H]2CC[C@H]1N2C(=O)NCc1ccccc1C(F)(F)F | 9.71%
CN(CC(=O)Nc1ccccn1)S(=O)(=O)c1ccc(Cl)cc1 | 10.1%
CNC(=S)N1CCN(C(=O)c2ccco2)CC1 | 7.89%
COc1ccc2nc(NC(=O)C3CCCN(S(=O)(=O)c4c(C)noc4C)C3)sc2c1 (stereo not drawn) | 9.33%
CCOc1c(C#N)c(C#N)c2nc(C)cc(C)n12 | -2.6%
COc1ccc(OC)c(NC(=O)C2C(C(=O)O)C3(Cl)C(Cl)=C(Cl)C2(Cl)C3(Cl)Cl)c1 (stereo not drawn) | 8.4%
Cc1ccc(C(=O)NCC(=O)OCCOc2cccc(Cl)c2)cc1 | 3.31%
COc1cc(C(=O)N[C@H](C(=O)Nc2nnc(C3CC3)s2)C(C)C)cc(OC)c1OC | -5.62%
Cn1nc(C(=O)N2CCN(c3ccc(Cl)cc3)CC2)c2c1-c1ccccc1S(=O)(=O)C2 | -6.38%
C[C@@H](NC(=O)[C@@H]1Cc2ccccc2CN1)C(=O)NC1CCCC1 | 11.9%
CCn1cc([N+](=O)[O-])c(C(=O)Nc2nc(-c3ccc(C)c(C)c3)c(C)s2)n1 | 11%
Cc1ccccc1N | 11.2%
Cc1ncccc1C(=O)N1CCCC(CNC(=O)c2ccc(-c3ccccc3)cc2)C1 (stereo not drawn) | 2.2%
CC1C(=O)N2CCCc3cc(S(=O)(=O)Nc4ccccc4C(N)=O)cc1c32 (stereo not drawn) | 5.86%
COC(=O)c1[nH]c2cc(OC)c(OC)cc2c1NC(=O)Oc1ccccc1 | 9.45%
CCOC(=O)c1c(C)[nH]c(C(=O)N(C)CC(=O)Nc2ccc(OC)cc2)c1C | -1.06%
Cc1ccc(C)c(NC(=O)C2CCCN(S(=O)(=O)c3c(C)nn(C)c3C)C2)c1 (stereo not drawn) | 18.8%

Structure (SMILES) | hERG current change (%, negative = inhibition) at 1uM
CCOc1ccc(NC(=O)c2cc(F)c(F)cc2Cl)cc1OCC | 5.72%
CC1CCCN(C(=O)Cn2nnc(-c3ccc(F)cc3)n2)C1 (stereo not drawn) | 3.02%
Cc1ccccc1NS(=O)(=O)c1ccc(OCC(=O)NCC2CCCO2)cc1 (stereo not drawn) | 7.91%
O=C(NCc1ccccc1)c1nc[nH]c1C(=O)NCc1ccccc1 | 3.69%
COc1ccc(OC)c(/C=C/C(=O)OCC(=O)NCc2cccs2)c1 | 13.8%
CSc1nc2ccccc2n1CC(=O)Nc1ccccc1 | 9.15%
CCCCn1nc(NS(=O)(=O)c2cccc3nonc23)c2cc3cccc(C)c3nc21 | 11.1%
C=CCN(N=Nc1cccc([N+](=O)[O-])c1)c1cccc([N+](=O)[O-])c1 | 23.8%
Cc1cccnc1NC(=O)c1ccc(NS(=O)(=O)/C=C/c2ccccc2)cc1 | 0.119%
Cc1ccc(C)c(S(=O)(=O)C(C#N)c2nc3ccccc3nc2N2CCOCC2)c1 (stereo not drawn) | 15.5%
CC(C)C(C)(C#N)NC(=O)CSc1nnc(-c2ccncc2)n1Cc1ccccc1 (stereo not drawn) | -0.509%
CC(=O)NS(=O)(=O)c1ccc(NS(=O)(=O)c2ccc3ccccc3c2)cc1 | 12.6%
Cc1c(NC(=O)c2ccc3c(c2)OCO3)cccc1-c1nc2ccccc2o1 | 1.15%
CC(=O)NC(c1cc(Cl)c2cccnc2c1O)C1CC1 (stereo not drawn) | 7.78%
O=C1C(=O)N(Cc2ccco2)C(c2cccs2)/C1=C(\O)c1cccc([N+](=O)[O-])c1 (stereo not drawn) | 8.91%
O=C(Cn1nc(-c2ccco2)ccc1=O)Nc1ccc(Br)cc1 | 8.87%
Cc1cc(C(=O)N2CCc3ccccc3C2)on1 | 6.25%
O=C(NNC(=O)c1sccc1-n1cccc1)c1ccc(Cl)cc1 | 8.21%
O=C(c1ccc2ccccc2n1)N1CCN(c2ccccc2Cl)CC1 | -3.11%
CCOC(=O)C1CCCN(C(=O)c2ccc(Cn3c(=S)[nH]c4cc(C(=O)OC)ccc4c3=O)cc2)C1 (stereo not drawn) | 11.2%
CS(=O)(=O)O.Cc1ccc(N(CC2=NCCN2)c2cccc(O)c2)cc1 | -10.3%
COc1ccc(/C=N/NC(=O)CCC(=O)Nc2ccc(F)cc2)c(OC)c1 | 8.61%

Structure (SMILES) | hERG current change (%, negative = inhibition) at 1uM
CCOc1ccc2nc(SCC(=O)NC3CCCCC3)[nH]c2c1 | 9.17%
O=C1CN(C(=O)c2ccc(Br)o2)C(c2ccc(F)cc2)c2cc(F)ccc2N1 (stereo not drawn) | -2.83%
Cc1nc(N)c(CC(Br)CBr)c(Cl)n1 (stereo not drawn) | 14.1%
COc1ccc(-c2oc(=O)n(C)c2-c2ccc(OC)cc2)cc1 | 1.64%
CC(CCc1ccccc1)NC(=O)c1cccc(F)c1 (stereo not drawn) | 14.2%
O=[N+]([O-])c1ccc2nc(-c3ccncc3)[nH]c2c1 | -3.78%
CC(C)=CC(O)C/C(C)=C/COc1ccc2ccc(=O)oc2c1 (stereo not drawn) | 9.5%
O=S(=O)(Nc1ncccn1)c1ccc(NC(=S)Nc2ccccc2)cc1 | 13.1%
O=C(Nc1cnn(Cc2ccc(F)cc2)c1)c1cc(-c2ccco2)on1 | 8.5%
COc1ccc(-n2c(O)c(C=Nc3c(C)n(C)n(-c4ccccc4)c3=O)c(=O)[nH]c2=O)cc1 | 3.68%
CSC1=NS(=O)(=O)c2c(C)nn(C)c2S1 | 13.8%
CN(C)S(=O)(=O)n1cc(/C=C(\NC(=O)c2ccccc2F)C(=O)N2CCCC2)c2ccccc21 | 12.3%
Cc1sc2c(c1C)c(=O)n(-c1ccccc1)c1nncn21 | 11.8%
COC(CNC(=O)c1coc2nc3ccccc3nc12)OC | 13.7%
CCn1c(=O)c(C(=O)Nc2ccsc2C(=O)OC)c(O)c2ccccc21 | 14.5%
COc1cc2cc[n+](Cc3ccc([N+](=O)[O-])cc3)cc2cc1OC.[Cl-] | -7.7%
CCCCC(CC)C(=O)Nc1ccc(S(=O)(=O)Nc2nccs2)cc1 (stereo not drawn) | 15.6%
CCn1c(SCc2nc(-c3ccccc3)no2)nc2ccccc21 | -5.48%
CC(C)(C)c1csc(NNC(=O)c2ccc(Cl)cc2)n1 | 13.8%
Cc1cc(C)c(C)c(OCC(=O)O/N=C(\N)c2ccncc2)c1 | 1.5%
Cc1ccc(C(=O)CN(CCCC(N)=O)C(=O)c2ccncc2)cc1 | 17.2%
COc1ccc(CNC(=O)CNC(=O)c2sc3ccccc3c2Cl)cc1OC | 16%

Structure (SMILES) | hERG current change (%, negative = inhibition) at 1uM
Cc1cc(C)nc(N/N=C/C=C/c2ccccc2)n1 | 2.04%
Cc1ccc(NC(=O)N2CCCn3c(SCC(=O)c4ccccc4)nnc32)cc1 | 9.94%
O=C(CN1C(=O)NC2(CCCCC2)C1=O)NCc1cccs1 | 1.94%
Cn1c(SCc2cccc(C#N)c2)nc2ccccc2c1=O | 16.8%
Cc1nc2ccccc2nc(=O)c1NNc1ccc([N+](=O)[O-])cc1 | 8.1%
Cc1nc(NC(=O)Nc2ccc(Cl)cc2)sc1C | 13.2%
CN(C)S(=O)(=O)c1cccc(NC(=O)COC(=O)COc2ccccc2[N+](=O)[O-])c1 | 14.5%
CC(=O)Nc1ccc(NC(=O)CSc2ccc3nnc(CCNC(=O)c4ccccc4)n3n2)cc1 | -0.725%
COc1ccc(N2C(=O)NC(NC(=O)C(C)(C)C)(C(F)(F)F)C2=O)cc1 (stereo not drawn) | 12.3%
Cc1ccc(CNC(=O)c2ccc(NC(=O)C3=CSCCO3)cc2)cc1 | 2.4%
Cc1nc2ncnn2c(Nc2ccc3c(c2)OCO3)c1Cc1ccccc1 | -26.8%
O=C(COc1coc(CN2CCN(c3cccc(Cl)c3)CC2)cc1=O)NC1CCCC1 | 3.81%
Cc1cc2ccccc2c(=O)n1CC(=O)Nc1ccc2c(c1)OCO2 | 11.1%
CC(=O)Nc1ccc(/C(C)=N/NC(=O)c2ccncc2)cc1 | 6.26%
CCCn1c(N)c(C(=O)CN(C)CC(=O)Nc2c(Cl)cccc2Cl)c(=O)[nH]c1=O | 0.55%
NC(=O)Cn1nc2sc3ccccc3n2c(=O)c1=O | 14.6%
CCOC(=O)c1oc2nc3c(cc2c1N)CCCC3 | 10.4%
CCOc1ccc(NC(C)c2cc(Cl)ccc2O)cc1 (stereo not drawn) | 11%
CCOC(=O)CCc1c(C)c2ccc(OC3CCCCC3=O)cc2oc1=O (stereo not drawn) | 17.9%
COc1ccc(Cc2nnc(SCc3ccc([N+](=O)[O-])cc3)o2)cc1 | -7.11%
Cc1nc(-c2ccc(Cl)cc2)sc1C1(C)CC(c2cccc([N+](=O)[O-])c2)=NO1 (stereo not drawn) | 8.09%
